Test results published in PubChem BioAssay AID1963576 (National Center for Advancing Translational Sciences (NCATS), 2024).
Out of some 46,000 compounds screened, about 60 (0.1%) were called active. Inconclusive results (about 3%) are left out. Calls come from the whole dose curve; as a rule, active = well fitted inhibition curve with a large enough effect; inconclusive = small, poorly fitted or top-dose-only effect; inactive = no such curve, though single readings can be large or run the other way. The list shows a part of the results.

Experiment: Primary qHTS assay for Inhibitors of ovarian cancer metastasis using an organotypic tumor microenvironment (TME) model.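 For activity change, negative = inhibition: plate controls were DMSO wells for no effect and tomatine positive control wells for full effect.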 Note: nearly all actives have a fitted effect of over 65% in size.
Conditions: SKOV3ip1-GFP adhesion/invasion on 3D omental model, fluorescence; series mostly up to 45.8 µM; activity change, negative = inhibition: at the top concentration
In short: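 Adhesion/invasion was scored as fixed GFP-labeled SKOV3ip1 cell counts (488/509 nm), normalized to DMSO and tomatine controls. Cancer cells in serum-free medium, with four compound doses (0.36-46 umol/L), sat 2 hr at RT then 16 hr at 37 C on a 48 hr fibroblast/mesothelial/ECM culture.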

Activity change, negative = inhibition, inactive:
COC(=O)C1CCN(S(=O)(=O)c2ccc(N3CCCCS3(=O)=O)cc2)CC1 6.22%, Cc1ccc2nc(-c3cc(NC(=O)COc4ccc(C)c(C)c4)ccc3Cl)oc2c1 -20.8%, CCC(=O)Oc1ccc(C2Nc3ccccc3-c3nnc(SC)nc3O2)cc1 (stereo not drawn) -14%, Cc1ccc(NC(=O)N2CCN(c3cc(-c4noc(C)n4)ccc3C)CC2)c(F)c1 -12.8%, CCCn1c(=O)c2sccc2n2c(CCCC(=O)NCc3ccccc3)nnc12 -1.83%, O=C(COc1ccccc1Cl)Nc1ccc2nc(SCC(=O)N3CCCC3)sc2c1 -2.63%, CCOC(=O)c1noc2ncnc(Nc3cccc(OC)c3)c12 95.1%, CCOC(=O)COc1ccc(F)cc1C(=O)c1ccn2nc(-c3ccc(Cl)cc3)cc2n1 -25.9%, COc1ccc(CCN2C(=O)c3[nH]nc(-c4ccccc4O)c3C2c2ccc(OC)c(OC)c2)cc1 (stereo not drawn) -16.5%, O=C(CCn1nc(-c2ccc(Cl)cc2)ccc1=O)NCCc1ccccc1 -20%, Cc1ccc(S(=O)Cc2nc(-c3ccc(C(=O)NCc4cccc(C)c4)cc3)oc2C)cc1 (stereo not drawn) -4.91%, Clc1cccc(Cl)c1NC1=NCCN1 -21.3%, CCOC(=O)C1=C(CS(=O)(=O)c2ccc(OC)c(Cl)c2)NC(=O)NC1c1cccc(OC)c1 (stereo not drawn) 18.4%, COc1ccc(-c2cc(-c3ccccc3)nc(SCC(=O)Nc3ccccc3F)c2C#N)cc1 4.95%, COc1cccc(NC(=O)CSc2nc(-c3ccccc3Cl)nc3c2Cc2c(CO)cnc(C)c2O3)c1 -20.1%, COc1ccc(C(=O)c2cn(Cc3ccccc3F)c3cc4c(cc3c2=O)OCO4)cc1 -0.887%, COc1ccc(CNC(=O)Cn2nnc(-c3ccc(C(F)(F)F)cc3)n2)cc1 -12%, CCOC(=O)c1ccc(N2C(=O)c3n[nH]c(C)c3C2c2cccc(Br)c2)cc1 (stereo not drawn) -4.8%, COc1ccccc1C(=O)Nc1ccc2oc(-c3cccc(Cl)c3Cl)nc2c1 -3.68%, COc1ccc(-n2c3c(cc(-c4nc(-c5ccc(C)cc5)cs4)c2=O)C(=O)CC(C)(C)C3)cc1 -0.123%, CC(C)C(=O)NCC(c1ccc2c(c1)OCO2)N1CCN(c2ccccc2F)CC1 (stereo not drawn) 5.77%, CCOc1ccc(C(=O)NCc2nc3cccnc3n2Cc2ccc(F)cc2)cc1OCC -0.939%, CC1CCCN(C(=O)c2cc3c(=O)n(C)c4ccccc4c3s2)C1 (stereo not drawn) -23.2%, Cc1sc2c(c1C)c(=O)n(-c1ccc(Cl)cc1)c(=O)n2Cc1cc(=O)n2ccccc2n1 -0.925%, O=C(NCc1ccco1)c1ccc(Cn2c(SCc3ccc(F)cc3)nc3cccnc32)cc1 -3.2%, Cc1ccc(CNC(=O)c2nc(SCc3ccccc3F)ncc2Cl)cc1 9.34%, Cc1cc(C)cc(NC(=O)C(=O)NCC(c2ccc3c(c2)OCO3)N2CCN(C)CC2)c1 (stereo not drawn) -14.4%, COc1ccc(NC(=O)Cn2c(=O)c(-c3cc(C)ccc3NC(C)=O)nc3ccccc32)c(OC)c1 30.8%, COc1cccc2c1ncc1c(-c3ccc(C)cc3)nn(-c3cccc([N+](=O)[O-])c3)c12 -6.66%, Cc1cccc(-c2nnc(SCc3cc(=O)c4cccc(Cl)c4[nH]3)n2C)c1 8.08%, CCOc1ccc(-n2c(SCC(=O)N3CCc4ccccc43)nc3c([nH]c4ccccc43)c2=O)cc1 -9.92%, Cc1cccc(-c2nc(SCC(=O)N3CCc4ccccc43)c3c(=O)n(C)c(=O)n(C)c3n2)c1 -3.53%, COc1ccc(N2CCN(Cc3nc4c(c(=O)[nH]c(=O)n4C)n3Cc3ccc(Cl)cc3)CC2)cc1 -0.387%, CCC(=O)Nc1cc(-c2cccc(C)c2)nn1-c1ccccc1 0.319%, COc1ccc(NC(=O)N(CCC(C)C)C(C)c2cccs2)c(OC)c1 (stereo not drawn) -9.73%, COCCNc1ncnc2c1c(-c1ccccc1)cn2-c1ccc(C)c(Cl)c1 -4.15%, O=C(NCc1ccco1)c1ccc2c(c1)N(Cc1ccccc1)C(=O)c1ccccc1S2(=O)=O 1.22%, COc1ccc(NC(=O)CSc2nc3c([nH]c4ccccc43)c(=O)n2-c2ccccc2)c(OC)c1 -23.3%, Cc1cc(S(=O)(=O)C(CNC(=O)c2ccc(OC(C)C)cc2)c2cccs2)ccc1F (stereo not drawn) -9.22%, CCN(CC)S(=O)(=O)c1ccc(NC(=O)NCc2noc3ccc(C)cc23)cc1 -19.4%, Cc1ccccc1S(=O)Cc1ccc(C(=O)N2CCN(c3cccc(C)c3C)CC2)o1 (stereo not drawn) -11.6%, Cc1ccc2onc(CC(=O)N3CCN(c4ccc(F)cc4)CC3)c2c1 -13.1%, Cc1ccc(-c2c(CN3CCN(c4cccc(C)c4)C(C)C3)csc2C)cc1 (stereo not drawn) -1.73%, CCOc1ccc(CCNC(=O)c2cnc3sc(N(CC)CC)nn3c2=O)cc1OCC 12.8%, CCN(CC)CCNC(=O)c1c(C)oc2ncnc(N3CCOCC3)c12 9.36%, Cc1cccc(C)c1OCC(=O)Nc1ncn[nH]1 16.8%, Cc1c(Cl)cccc1NC(=O)CSc1ncc2c(n1)-c1ccccc1N(C)S2(=O)=O -3.17%, CC(C)c1ccc(NC(=O)c2cc3sc(Cl)cc3n2C)cc1 -9.18%, Cc1cccc(N(CC(O)Cn2c3ccccc3c3ccccc32)S(=O)(=O)c2ccc(F)cc2)c1 (stereo not drawn) -25.1%, O=C(NCCc1ccccc1)c1ccc2c(c1)N(Cc1ccc(F)cc1)C(=O)c1ccccc1S2(=O)=O 6.62%, COc1ccc(OC)c(CNS(=O)(=O)c2ccc3c(c2)CCCN3C(C)=O)c1 2.3%, COc1ccccc1NC(=O)N(Cc1nnc2n1CCCCC2)c1ccc(F)cc1 7.41%, COc1ccc(NC(=O)Cn2nnc(C(=O)NCCc3ccccc3)c2N)cc1 -0.79%, CC(=O)c1cccc(NC(=O)C(C)n2c(=O)cc(C)c3c(C)nn(-c4ccccc4)c32)c1 (stereo not drawn) 5.26%, COc1cccc(N2CCN(C(=O)c3cccc(-n4c(C)nc5cccnc54)c3)CC2)c1 10.2%, CCOc1ccc(NC(=O)c2c(NCc3cccnc3)sc3c2CCCC3)cc1 0.887%, CC1CCc2c(sc3nc(-c4cc5cc(Br)ccc5oc4=O)[nH]c(=O)c23)C1 (stereo not drawn) -4.82%, O=C(CCS(=O)(=O)c1cccc2nonc12)Nc1c(F)cccc1F -7.84%, Cc1cc(C)cc(NC(=O)N2CCC3(CC2)Oc2ccccc2C(=O)N3Cc2ccccc2F)c1 6%, COc1ccc(-c2nnc(SCC(=O)Nc3cccc(C(F)(F)F)c3)nc2-c2ccc(OC)cc2)cc1 -1.07%, C=Cc1ccc(Cn2c(C(=O)O)c(CNC3CCCCC3)c3ccc(C)cc32)cc1 -1.76%, COc1ccc(CCn2c(=O)c3cccnc3n(CC(=O)Nc3ccc(C)c(F)c3)c2=O)cc1OC 0.319%, CCc1nn2c(=O)cc(COc3ccc(/C=C(\C#N)C(=O)Nc4ccc(F)cc4)cc3OC)nc2s1 28.6%, CC(C)COc1ccc(C(=O)Nc2cc3nn(-c4ccccc4)nc3cc2Cl)cc1 1.9%, CCOc1ccc(OCC)c(NC(=O)C2CCN(S(=O)(=O)c3c(C)noc3/C=C/c3ccccc3F)CC2)c1 5.77%, COc1cccc(Cn2c(CNS(=O)(=O)c3ccc(F)c(Cl)c3)nc3cccnc32)c1 5.58%, O=C(COc1ccccc1)NCCc1csc(-c2ccc(Cl)cc2)n1 8.88%, CCOC(=O)c1[nH]c2c(c1Cc1ccccc1C)C(=O)CC(c1cc(OC)ccc1OC)C2 (stereo not drawn) 12.8%, CN1C(=O)Cc2cc(S(=O)(=O)N3CCN(c4ccc(Cl)cc4)CC3)ccc21 0.543%

outcome, inactive:
Cc1ccc(S(=O)(=O)Nc2cc3c(cc2N2CCOCC2)n(C)c(=O)n3C)cc1, CCOC(=O)c1c(NC(=O)CSc2cn(CCNC(=O)c3c(F)cccc3F)c3ccccc23)sc2c1CCC2, CC(=O)Nc1c(C)nn(-c2ccccc2)c1N1CCC(C(=O)NCc2ccccc2Cl)CC1, CCOc1ccc(-n2c(SCC(N)=O)nc3c(oc4ccccc43)c2=O)cc1, COc1ccc(C2C(C(N)=O)=C(C)Nc3nc(SCc4ccccc4Cl)nn32)cc1OC (stereo not drawn), CCOC(=O)c1ccccc1NC(=O)CSc1nc2ccncc2[nH]1, CCOC(=O)CNc1nc(Oc2ccc(=O)n(C)n2)nc(N(CC)CC)n1, COc1ccc(OC)c(NC(=O)c2cc(-c3ccc(Cl)s3)nc3ccccc23)c1, Cc1cc(=O)[nH]c2nnc(SCC(=O)Nc3ccc(OC(F)(F)F)cc3)n12, O=C(COc1ccccc1)NCc1ccc2c(c1)CCN2C(=O)c1ccc(Cl)cc1, COc1ccccc1CNC(=O)CCc1c(C)nn(-c2ccc(N3CCOCC3)nn2)c1C, NCc1nc2cccnc2n1Cc1ccccc1Cl, Cc1ccc(CNC(=O)c2oc3c(c2C)-c2nn(Cc4ccc(Cl)cc4)cc2CC3)cc1, CCOc1ccc(NC(=O)Cn2c3ncccc3c(=O)n2-c2ccc(CC)cc2)cc1, COc1ccc(-n2ncc3c(NC(C)(C)CO)ncnc32)cc1, CC(C)CC(=O)N1c2nc(C(C)C)nn2C2(CCCCC2)[C@@H]2CCCC[C@@H]21, Cc1cc(C)c(NC(=O)Cn2cc(S(=O)(=O)Cc3ccccc3F)c3ccccc32)c(C)c1, COC(=O)c1c(NC(=O)c2cc3ccccc3c(=O)o2)sc2c1CCCC2, CCOC(=O)c1ccc(CN(Cc2ccc(F)cc2)S(=O)(=O)c2ccc(F)c(C(=O)Nc3ccc(Cl)cc3F)c2)cc1, O=S(=O)(Nc1ccc(Br)cc1F)c1ccc2nc(-c3ccccc3)[nH]c2c1, COc1ccc(Br)c(C(=O)Nc2cc3c(cc2N2CCOCC2)n(C)c(=O)n3C)c1, O=C(c1ccc2c(c1)OCCO2)N(Cc1cccnc1)c1nc2c(Cl)cccc2s1, Cc1ccccc1-c1nn2c(=O)cc(CN3CCN(C(=O)/C=C/c4ccccc4)CC3)nc2s1, CCc1ccc(NC(=O)Cn2c(=O)n(CCC(=O)N3CCc4ccccc4C3)c(=O)c3ccccc32)cc1
